# From the supplement of paper PMC10338343
# ± gives the standard deviation. The list shows a part of the results, in another mix than the full data.
# Tested on: MIWI (PIWIL1) piRISC loaded with piRNA #1 (30 nt)
# Assay: pre-steady-state target cleavage rate (min^-1); MIWI and MILI are mouse PIWI proteins and EfPiwi is from a freshwater sponge; tags in brackets are library labels; higher = faster piRNA-guided slicing of the target
# Settings: guide: piRNA #1 5'p-UGAGGUAGUAGGUUGUAUAGUAUCCAGAGG; auxiliary factor: 500 nM mouse GTSF1
# Outline: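 At 33 °C in HEPES–potassium acetate buffer, a transcribed, DNA-blocked target RNA library […] was exposed for 0–8 or 0–960 min to 1 nM active affinity-purified piRISC carrying a single synthetic guide, with or without 500 nM GTSF1 partner protein. Uncleaved targets were sequenced and normalised to depth and to weakly complementary targets. With three trials pooled and k3 capped at 0.0001 min^-1, a burst-and-steady-state fit produced the pre-steady-state cleavage rate.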
# 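Further: 1 nM active piRISC with 0.1 nM target library at 33 °C single turnover.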
row,Sequence,pre-steady-state target cleavage rate
1,GGAGACCUAACUAUACAUCGUACUACCUCA,0.00737 ± 0.0031
2,GGAGACCUAUGAUAUCUACCUACUACGUCA,< 0.0001
3,GGAGACCUAACUAUACAACCUACUAGCACA,0.116 ± 0.043
4,GGAGUGGAUUCUAUACAACCUACUACCUGA,0.441 ± 0.076
5,GGAGACCUAUCUAAACAAGCUACUACCUCA,0.0359 ± 0.0095
6,GGAGACCUAAGUAUACAACCUUCUACCUCA,0.0158 ± 0.0037
7,GGAGAGGAUAGUAUACAACCUACUACCACA,0.381 ± 0.043
8,GGAGACCAUAUCUAUACAACCUACUACCUCA,1.35 ± 0.11
9,GCUCUGCAAACUAUACAACCUACUACCUCA,1.57 ± 0.097
10,GGAGACCCUACUAUACAACCUACUACCUCA,1.66 ± 0.12
11,GCUCUGGUUACAAUACAACCUACUACCUCA,1.98 ± 0.12
12,GGAGAGGUUACUAUACAUCCUACUACCUCA,0.566 ± 0.042
13,CCUCUGGAUACUAUACAACCUACAAGCUCA,0.925 ± 0.11
14,CCUCUGGAUUCUAUUCAACCUACUACCUCA,1.12 ± 0.071
15,GCUCUGGAUACUAUAGUACCUACUACCUCA,1.06 ± 0.082
16,GGAGACCUUACUGAUACAACCUACUACCUCA,0.642 ± 0.068
17,GGAGACCAUACUAUACAACCUACAAGCUCA,0.138 ± 0.026
18,CCUCUGGAAACUAUACAACCUACUUCCUCA,0.495 ± 0.058
19,GGACUGGUUACUAUACAACCUACUACCUGA,0.381 ± 0.082
20,CCUCUGGAUACUAUACAGCCUACUACCUCA,0.743 ± 0.03

row,Sequence,pre-steady-state target cleavage rate
1,GGAGACGAAAGUAUACAACCUACUACCUCA,0.527 ± 0.062
2,GGAGACGAUACUUUACAACCUAGUACCUCA,0.413 ± 0.057
3,GGACUGGAUACUAUACAACCUACUAGCUCA,0.0504 ± 0.011
4,GGAGACCUAUGUAUACAAGCUAGUACCUCA,0.0118 ± 0.0023
5,GGUAUGGAUACUAUACAACCUACUACCUCA,1.88 ± 0.11
6,GGAGACCUAACUAUACAACCUACUACCCUCA,0.732 ± 0.064
7,GCUCUGGAUACUAUACAACCUGCUACCUCA,0.571 ± 0.033
8,GGAGACCUAACUACACAACCUACUACCUCA,0.96 ± 0.13
9,CCUCUGGAUACUAUUGUACCUACUACCUCA,0.139 ± 0.021
10,CACUCUGGAUACUAUACAACCUACUACCUCA,2.09 ± 0.12
11,GCUCUGGAUACUAUACAACCUACUACCUA,1.37 ± 0.1
12,CCUCUGGAUACUAUACAACCUACUACGCUCA,1.73 ± 0.11
13,GGAGACCUAACUUUACAAGCUACUACCUCA,0.119 ± 0.024
14,CCUCUGGAUACUAUAGAACCUAGUACCUCA,0.0122 ± 0.0031
15,GGAGACCAUACUAUACAACGAACUACCUCA,0.00598 ± 0.0026
16,GGAGAGGAUCACUAUACAACCUACUACCUCA,1.08 ± 0.099
17,GCUCUGGAUACUAUACAACCUUGUACCUCA,0.0481 ± 0.0085
18,CGUCUCGAUACUAUACAACCUACUACCUCA,1.62 ± 0.1
19,GGAGACCUUACUAUACAACCAACUAGCUCA,0.0315 ± 0.0059
20,CCUCUGGAUACUAUACAUGGUACUACCUCA,0.0547 ± 0.0094
